# Test results reported in ChEMBL document CHEMBL4888484, “Replenishing the malaria drug discovery pipeline: Screening and hit evaluation of the MMV Hit Generation Library 1 (HGL1) against asexual blood stage Plasmodium falciparum ,using a nano luciferase reporter read-out” (2022).
# Among all 150,000 compounds or so, about 540 (0.36%) showed an effect of 50% or more. The list shows a part of the results.
# Tested on: Plasmodium falciparum
# Assay: Primary screen in NF54 nanoGlo assay, in single point, at 2uM, 72h; a lower Z score goes with more inhibition
# Format: functional, Erythrocyte
# Details: timepoint 72 hour
SMILES,% Inhibition [%],Z score
Cc1cccc(C)c1NC(=O)c1cc(S(=O)(=O)N2CCN(Cc3ccc4c(c3)OCO4)CC2)ccc1F,-10,1.39
Cc1noc(C)c1C(=O)N[C@H]1CC[C@H](Oc2ncc(F)cn2)CC1,-11,1.9
CCOC(=O)c1csc(N(C)C(=O)Cc2ccccc2Cl)n1,-2,0.35
NC(=O)c1cc(OC2CCN(Cc3ccccn3)CC2)ccn1,-15,1.97
O=C(Nc1cc(N2CCOC2=O)ccc1F)[C@@H]1CCCN1C(=O)c1cc(Cl)ccc1Cl,-19,1.89
CN(C1CCCC1)C1CCN(C(=O)Nc2ccc(Cl)cc2)CC1,0,0.06
O=C(NCCNc1ccccc1)NCc1ccco1,-2,0.43
C[C@H](C(=O)NCCc1c[nH]c2ncccc12)C1CC1,-18,2.05
CN(C)C(=O)C1CCC(CNC(=O)N2CCC(O)(C(F)(F)F)CC2)O1 (stereo not given),-6,1.12
O=C(C[C@@H]1C[C@@H]2C=C[C@H]1C2)NCCc1nccs1,-3,0.57
NC[C@H]1CCCCN1C(=O)c1ccc(-c2ccccc2)[nH]1,-11,2.02
Cc1cc(C)nc(NOCc2ccccc2)n1,3,-0.61
COc1cccc(C(=O)N2CCN(C(=O)[C@@H]3CN(C)C(=O)N3)CC2)c1,-10,1.54
CN1CCC(NC(=O)NCC2(CO)CCC2)C1c1ccccc1 (stereo not given),-12,2.33
O=C(N/C(=N\c1ccc(F)cc1)N1CCN(Cc2cccc(F)c2)CC1)c1ccccc1,2,-0.32
CC(C)N1CCN(C(=O)[C@@H]2CCCCc3nnc(-c4ccccc4)n32)CC1,-6,0.88
c1nnc(CN2CCCC23CCC3)s1,10,-1.03
COc1cc([C@@H]2NC(=O)c3c(sc(C)c3C)N2)ccc1O,30,-3.81
CC(C)c1ncsc1NC(=O)NCc1nc2c(s1)COCC2,0,0.06
CC(C)C1OCCCC1CNC(=O)C1CC(c2cccnc2)=NO1 (stereo not given),-21,3.52
O=C1CC[C@H](C(=O)N2CC3CCC(C2)O3)N1,5,-0.58
COCCn1c(C)cnc1CCNC(=O)c1cccn1C,-11,1.92

SMILES,% Inhibition [%],Z score
O=C(NS(=O)(=O)c1cnc2n1CCC2)c1cccc2c1CCCC2,-8,1.36
CCOC(=O)c1csc(C2CCCN2C2CCNC2=O)n1 (stereo not given),-3,0.42
Cc1ccccc1CN1CCc2[nH]cnc2[C@H]1c1cnc(NC(C)C)nc1,-8,0.97
COC[C@H]1CCCN1S(=O)(=O)N1CCC(CNC(=O)c2ccccc2)CC1,-16,3.08
Cc1nc(C)c(CC(=O)Nc2ccc3c(c2)OCO3)s1,3,-0.53
COc1ccc(-n2nc3nc(NC[C@H]4CCCO4)nc(-c4cccc(F)c4)c3c2N)cc1,-5,0.52
CC(NC(=O)NCC1CCCS1(=O)=O)c1ccc(F)cc1Cl (stereo not given),-12,1.51
Cc1noc(OCc2cn3ccccc3n2)n1,-12,1.64
Cc1cccc(CO[C@]2(C(=O)NCC3CC3)CC(OCc3c(F)cccc3F)[C@@H]3OC(C)(C)O[C@@H]3C2)c1 (stereo not given in full),-22,1.9
CC[C@H](C)c1noc(Cn2nc(C(F)(F)F)c3c2CCOC3)n1,-9,1.2
CC(C)n1c(=O)sc2cc(S(=O)(=O)N3CCN(C(=O)Cc4ccc(Cl)cc4)CC3)ccc21,-16,1.65
CC(=O)N1CCC(N2CCC(Cc3ccccc3)CC2)CC1,1,-0.27
C[C@H](OC(=O)c1ccc(O)cc1)C(N)=O,-6,1.07
CCc1cccc(Nc2c(-c3nc(C)no3)cnc3nc(C)ccc23)c1,-6,0.74
N[C@@H](Cc1ccc(O)cc1)C(=O)NCC1(CO)CCCC1,-10,1.32
Cc1nnccc1C(=O)N1CCC=C(F)C1,-20,2.31
CCCN(Cc1ccccc1F)Cc1[nH]c(CC)nc1C,-8,1.58
C[C@H]1CCCCCN1C(=O)Nc1ccc(S(=O)(=O)N(C)C)cn1,-11,1.51
COC(C)c1cccc(NC(=O)NC2c3ccccc3CCC2n2ccnc2)c1 (stereo not given),-3,0.59
CCNC(=O)N(CCN1CCOCC1)CC(=O)N1N=C(c2cccn2C)C[C@H]1c1ccc(F)cc1,-7,0.84
c1ccc(-c2n[nH]c(C3CCN(c4ncnc5nc[nH]c45)CC3)n2)cc1,-3,0.36
Cn1c(NC(=O)CNC(=O)N2CCCC2)nc2cccc(Cl)c21,-5,0.83

SMILES,% Inhibition [%],Z score
c1ccc(-c2nc(-c3cnccn3)no2)c(OC2CNC2)c1,6,-0.67
CC(C)CN[C@H]1[C@H](O)[C@@H](n2cc(-c3ccccc3)cn2)[C@@H]2OC[C@H]1O2,23,-2.66
O=C(COc1ccccc1)n1nc(NCc2c(F)cccc2Cl)nc1NCc1c(F)cccc1Cl,7,-0.84
COc1ccc(F)cc1CN1CCN(Cc2ncc[nH]2)[C@@H]2CS(=O)(=O)C[C@@H]21,1,-0.24
Cc1sc(C=Cc2cc(C(F)(F)F)nn2C)nc1C(=O)O,-2,0.44
CCN(CC)c1nc(O)nc(N(CC)CC)n1,-1,0.18
COC[C@@H]1CC(F)(F)CN1C1CCN(C(=O)CCn2cccn2)CC1,-2,0.36
C[C@H]1CNC(=O)CCN1C(=O)c1ccccc1Oc1ccccc1,-9,1.42
CC(=O)N(CCc1noc(C2CCC2)n1)[C@H]1CCN(S(=O)(=O)N(C)C)C1,2,-0.27
COc1ccccc1CCC(=O)N1CC[C@](C)(O)[C@@H](O)C1,5,-1.01
Cc1nn(C)c(C)c1CC(=O)Nc1cnns1,-7,0.9
C[C@H]1CN(c2cc(C(=O)N3CCC(C)(C)c4ccccc43)ccn2)CCO1,-3,0.49
O=C(NCc1cccnc1)N1C[C@@H]2[C@@H]3CC[C@@H](C3)[C@@H]2C1,-10,1.67
Cn1cc(/C(N)=N/O)c(=O)c2ccc(N3CCOCC3)cc21,10,-1.17
OCC1CCCN1CC1CCCN1c1ncc(C(F)(F)F)cc1Cl (stereo not given),-2,0.22
CN(C)c1ncnc(NCc2ccccc2CN2CCCCC2)c1N,-6,0.87
CCc1ncnc(N[C@@H](C)c2ccncc2)c1F,-8,1.1
CN(CCc1nc(C2CC2)nn1-c1ccccc1C(F)(F)F)S(C)(=O)=O,-4,0.36
Cc1noc(CN2CCN([C@H]3CCN(Cc4c(F)cccc4Cl)C3)C2=O)n1,-4,0.69
O=C(NCCOc1ccc2c(c1)OCO2)c1ccc2c(c1)OCCO2,-8,1.36
CCOc1ccc(Cc2nc(C)c(CC(N)=O)c(O)n2)cc1,-4,0.5
COc1ncccc1C(=O)Nc1cnns1,0,-0.04

SMILES,% Inhibition [%],Z score
CC(C)OC1CN(c2ncccc2C#N)C1,-14,1.82
c1ccc(CNc2cc(-c3ncccn3)c3cc[nH]c3n2)nc1,-19,1.74
CC(C)Oc1ccc(NC(=O)C(C)C)cc1,-5,0.72
O=C([C@H]1CC12CCN(Cc1cccs1)CC2)N1CCN(c2ccccc2)CC1,-1,0.22
CCS(=O)(=O)Nc1ccnn1[C@@H](C)C1CC1,3,-0.45
COc1ccc(C(=O)N[C@H]2CN[C@H](C(=O)N3C[C@H]4CC=CC[C@H]4C3)C2)cc1,-11,1.02
NS(=O)(=O)c1ccc(CCNC(=O)C2CC3CCCCC3N2S(=O)(=O)c2ccccc2)cc1 (stereo not given),-9,1.46
C[C@H](Oc1cccnc1)C(=O)NCCN1c2ccccc2NS1(=O)=O,1,-0.07
CCCC(N)C(=O)N1C2CCC1CC(N(C)C(=O)c1ccccc1)C2 (stereo not given),1,-0.09
COCc1nocc1CNCCC(=O)OC(C)(C)C,-8,1.03
COc1cccc(F)c1C(C)NC(C)c1ccc(-n2cnnn2)cc1 (stereo not given),-8,0.8
O=C(NC[C@H]1CCc2ccccc21)NC1CCCC1,-2,0.27
O=C(C[C@H]1CCCCN(Cc2ccccc2)C1=O)N1CCN(c2ncccn2)CC1,-3,0.62
O=C(O)c1ccccc1CC(=O)N1CCCCCCC1,-3,0.42
Cc1cccc2c1N(CC(=O)NCc1ccc(F)cc1)C(=O)[C@@H]1CCCN1C2=O,-1,0.19
Cc1c(CCNC(=O)NCC2CC23CCc2ccccc23)cnn1C (stereo not given),36,-4.11
O=C(N[C@@H]1C[C@H]1C1CCCCC1)N1CCC(N2CCCCC2)C1 (stereo not given in full),-9,1.45
N#Cc1nc(NC(=O)c2ccc3c(c2)OCO3)[nH]c1C#N,3,-0.26
COc1ccc(Cl)cc1CN(CC#N)S(=O)(=O)N(C)C,-6,0.77
